The whole screen tested about 140,000 compounds, of which about 240 (0.17%) were called active. Inconclusive results, whose numbers are uncertain, are shown with a selection of clear calls. Calls come from the whole dose curve; as a rule, active = well fitted inhibition curve with a large enough effect; inconclusive = small, poorly fitted or top-dose-only effect; inactive = no such curve, though single readings can be large or run the other way. Potencies of inconclusive entries are doubtful fits and often do not repeat.
Experiment: Primary qHTS assay for inhibitors of alpha-synuclein gene (SNCA) expression; note: nearly all actives have a fitted effect of over 45% in size
Conditions: HEK-293 SNCA-luciferase knock-in, luminescence, 24 h; series mostly up to 57.2 µM
Potency is the fitted concentration of half-maximal effect; tags give direction and shape of the fitted curve.

SMILES	Potency
Cc1cc(=O)n(CC(=O)Nc2ccc(C)c(F)c2)c(N2CCc3ccccc3C2)n1	inconclusive: 39.8 µM [inhibitor, single point]
O=C1NC(C(=O)NCCCn2cccn2)Cn2cccc21 (stereo not drawn)	inconclusive: 5.62 µM [inhibitor, partial curve]
CC(C)NC(=O)N1CNC(=O)C12CCN(C(=O)CN)CC2	inactive
Cc1ccc(CN(Cc2ccco2)C(=O)COc2ccc(C(C)C)cc2)cc1	inconclusive: 22.4 µM [inhibitor, single point]
CC(=O)Nc1cccc(C(=O)Nc2cccc(-c3nnc4n3CCCC4)c2)c1	inconclusive: 8.91 µM [inhibitor, single point]
CSc1cccc(NC(=O)Nc2cccc(-c3ccc(N4CCCC4)nn3)c2)c1	inactive
COCCN1C(=O)c2cccn2CC1CNC(=O)c1ccoc1 (stereo not drawn)	inactive
O=C(CCc1nc2ccc(Cl)cc2[nH]1)N1CC(CO)C2(CCNCC2)C1 (stereo not drawn)	inconclusive: 39.8 µM [inhibitor, single point]
CCC(=O)C1=C(c2cccc(OC)c2)N(C(=O)CC)n2c(nnc2C2CCCCC2)S1	inconclusive: 12.6 µM [inhibitor, partial curve, poor fit]
Cc1cccc(C)c1OCc1nc2c3c(-c4ccccc4)c(-c4ccccc4)oc3ncn2n1	inconclusive: 39.8 µM [inhibitor, single point]
C#CCNC(=O)[C@@H]1CCCN1c1nccc(Nc2ccccc2Cl)n1	inconclusive: 6.31 µM [inhibitor, single point]
COc1ccc(C(=O)N2CCC3(CC2)CC(C(C)C)=NO3)cc1	inactive
CN1C(=O)C2(CCN(C(=O)CCC3CCCC3)CC2)c2ccccc21	inconclusive: 28.2 µM [inhibitor, single point]
COC(=O)N1CCN(Cc2cccc(NC(=O)Nc3ccc(C)nc3)c2F)CC1	inconclusive: 7.64 µM [inhibitor, single point]
CN1CCCC1c1nc(C2CN(C(=O)CC3CCCCC3)C2)no1 (stereo not drawn)	inactive
CCOC(=O)C1=CN(CC(=O)NCCc2ccc(Cl)cc2)S(=O)(=O)N=C1C	inconclusive: 3.16 µM [inhibitor, single point]
COc1ccc(CNc2ncnc3c2CN(c2ccc(Cl)cc2)C(=O)N(C)C3)cc1	inconclusive: 8.91 µM [inhibitor, single point]
COc1ccc(-c2cc(-c3cccc(O)c3)cn3cncc23)cc1	inconclusive: 12.6 µM [inhibitor, full curve, poor fit]
COc1ccc(CN2CCNc3cc(-c4ccccc4)ncc3C2)cn1	inconclusive: 56.2 µM [inhibitor, single point]
COc1cc(-c2cn(C)c(=O)n3cc(COc4ccnn4C)nc23)ccn1	inactive
CC(C)(O)CCc1cccc(C(=O)NCc2ccccc2Cn2cccn2)c1	inconclusive: 3.16 µM [inhibitor, full curve]
O=C(c1cn2cc(-c3ccccc3Cl)n(CC3CC3)c(=O)c2n1)N1CCCCC1	inactive
CCOc1ccc(CNCc2c(C(=O)O)n(Cc3ccc(C)cc3)c3cc(C)ccc23)cc1	inconclusive: 39.8 µM [inhibitor, single point]

SMILES	Potency
O=C1[C@@H]2C[C@@H](CN2CC2CC2)Oc2ccccc2N1Cc1ccccn1	inactive
CN1CC(=O)N(C2CCCC2)Cc2c(NCc3cccc(C(F)(F)F)c3)ncnc21	inactive
COc1ccc(-c2ccc3nnc(CNC(=O)c4ccc(C)cc4C)n3n2)cc1	inactive
COc1ccccc1-c1ccc(CN2CCCC(c3nc4ccc(C)cc4c(=O)[nH]3)C2)cc1 (stereo not drawn)	inactive
CC(=O)Nc1ccc(C)cc1S(=O)(=O)NCCn1c(C)cnc1C1CCC1	inconclusive: 15.8 µM [inhibitor, single point]
N#Cc1ccc(CN2CCC3(CC2)CN[S+](=O)([O-])c2ccccc2N3)cc1	inactive
CCCCCCCCCCCCCCCCCCOC[C@H](COP(=O)([O-])OCC[N+](C)(C)C)OC	inconclusive: 7.08 µM [inhibitor, single point]
COC(=O)C1=C(C)NC(C)=C(C(=O)OC)C1c1ccccc1[N+](=O)[O-]	inconclusive: 14.1 µM [inhibitor, partial curve, poor fit]
COc1ccccc1-c1ccc(CN2CCCCC2C(=O)NCCc2ccccc2)cc1 (stereo not drawn)	inconclusive: 14.1 µM [inhibitor, partial curve, poor fit]
CO[C@H]1[C@H](NC(=O)c2cc(C)oc2C)c2ccccc2C12CCNCC2	inconclusive: 3.55 µM [inhibitor, full curve, poor fit]
Cc1cc(C)cc(NC(=O)N2C[C@@H](F)C[C@H]2C(=O)N2CCc3ccccc3C2)c1	inactive
CC1Cc2cc(-c3ccnc4ncnn34)ccc2O1 (stereo not drawn)	inactive
O=C(O)C[C@@H]1CCN(C(=O)c2ccc(F)cc2)C[C@@H]1CCN1CCCCC1	inactive
CCOc1ccc(NC(=O)c2cnn3c2NC(c2cccc(OC)c2)=CC3c2ccccc2)cc1 (stereo not drawn)	inconclusive: 39.8 µM [inhibitor, single point]
O=C(NCc1ccc(F)cc1)N1CCCC(Cc2noc(-c3cccnc3)n2)C1 (stereo not drawn)	inconclusive: 10 µM [inhibitor, partial curve, poor fit]
CCNC(=O)N1CCC(c2noc(-c3ccncc3)n2)C1 (stereo not drawn)	inconclusive: 3.16 µM [inhibitor, single point]
CC(=O)Nc1ccc(C(=O)N2CCCC(c3nc(C)ncc3-c3cccc(C)c3)C2)cc1 (stereo not drawn)	inconclusive: 5.01 µM [inhibitor, single point]
Cc1nc2cccnc2n1CC1CCCN(S(=O)(=O)c2cccc(F)c2)C1 (stereo not drawn)	inactive
c1ccc(-c2noc(-c3nc(C4CC4)no3)n2)cc1	inactive
CC(NC(=O)CN(c1ccc(Cl)cc1Cl)S(=O)(=O)c1ccccc1)c1ccccc1 (stereo not drawn)	inconclusive: 39.8 µM [inhibitor, single point]
Cc1ccc(-n2ncc(C(=O)NCCc3c[nH]c4ccccc34)c2C2CCN(C(=O)OC(C)(C)C)CC2)cc1C	inconclusive: 10 µM [inhibitor, partial curve, poor fit]
O=C(c1ccncc1)N1CCC(Cc2noc(-c3ccccc3)n2)C1 (stereo not drawn)	inconclusive: 39.8 µM [inhibitor, single point]
O=C(CCc1ccccc1)N(Cc1cccnc1)c1nc2c(F)cccc2s1	inconclusive: 11.2 µM [inhibitor, partial curve, poor fit]

SMILES	Potency
Cn1cc(-c2cnc(Nc3ccncc3)c3c2CCO3)cn1	inactive
Cc1cc(C)cc(NC(=O)C2CCCN(C(=O)c3cnn(-c4ccccc4)c3-n3cccc3)C2)c1 (stereo not drawn)	inconclusive: 39.8 µM [inhibitor, single point]
O=C(NC1CCN(Cc2cccc(-c3cccs3)c2)CC1)C1CCCC1	inactive
O=C(CN1Cc2nc(OCc3ccc(F)cc3)ccc2OCC1=O)N1CCCC1	inconclusive: 28.2 µM [inhibitor, single point]
COC[C@H]1CCCN1C(=O)[C@@H](C)C1CC[C@@]2(C)CC[C@H](NC(=O)CC(C)(C)C)[C@@H](C)[C@@H]2[C@H]1O (stereo partly drawn)	inconclusive: 2.24 µM [inhibitor, full curve, poor fit]
COc1ccc(Cl)cc1C(=O)N1CCCC(c2[nH]ccc2C(N)=O)C1 (stereo not drawn)	inconclusive: 39.8 µM [inhibitor, single point]
Cc1ccc(NC(=O)CN2C(=O)C(c3ccc(F)cc3)=NC23CCCCCC3)c(C)c1	inconclusive: 39.8 µM [inhibitor, single point]
Cc1ccc(NC(=O)C2CCN(S(=O)(=O)c3cccc4nsnc34)CC2)cc1	inconclusive: 39.8 µM [inhibitor, single point]
Cc1ccc(C)c(N2CCN(C(=O)C3CCC(CNS(=O)(=O)c4cccs4)CC3)CC2)c1 (stereo not drawn)	inconclusive: 25.1 µM [inhibitor, single point]
COCCCNC(=O)C1CCCCN1Cc1ccc(-c2ccsc2)cc1 (stereo not drawn)	inactive
CN(C)Cc1nnc(C2CC(NC(=O)c3ccc4c(c3)CCC4)C2)n1C (stereo not drawn)	inactive
COc1ccc2nc([C@H]3CCN(Cc4ccncc4)C3)[nH]c2c1	inactive
O=C1c2c(nc(COc3ccccc3)n2Cc2ccccc2)NCCN1CCOc1ccccc1	inactive
COc1ccc(-c2onc(C)c2C(=O)NCc2cccs2)cc1	inconclusive: 12.6 µM [inhibitor, single point]
COc1ccc(-c2cnc3[nH]cc(CC(=O)NCCc4ccccn4)c3c2)cc1	inactive
O=C(NCc1ccc(Cl)cc1)c1nc2sccn2c1-c1ccccc1	inactive
Cc1ccc(C)c(NC(=O)Cn2ncc3c(C)n(Cc4ccc(F)cc4)c(C)c3c2=O)c1	inconclusive: 7.08 µM [inhibitor, single point]
CC(=O)N1CCC(N2C[C@@H]3C[C@H](C2)c2c(NC(=O)NC4CCCCC4)ccc(=O)n2C3)CC1	inactive
CCOc1ccc(NC(=O)NCCN2CCN(c3cc(Cl)ccc3C)CC2)cc1	inconclusive: 25.1 µM [inhibitor, single point]
CCOC(=O)c1c(Nc2ccc(C)c(C)c2)nnc(-c2ccccc2)c1-c1ccccc1	inconclusive: 39.8 µM [inhibitor, single point]
Cc1ccc(Cl)cc1N1CCN(c2nc3ccc(C(=O)c4ccccc4)cc3n3cnnc23)CC1	inconclusive: 3.16 µM [inhibitor, single point]
COc1ccc(Cn2c(SCc3ccc(C(=O)NCc4ccc(C)cc4)cc3)nc3cccnc32)cc1	inconclusive: 39.8 µM [inhibitor, single point]

Reference: PubChem BioAssay AID1671194 (National Center for Advancing Translational Sciences (NCATS), 2021)
